Legend:
[1] = test system: human 2-5A-dependent RNase; details: purified enzyme, poly(rU) substrate
poly(C) = test: Ribonuclease assay with 2-5A-cellulose; format: biochemical; details: after one hour of incubation; enzyme bound to 2-5A-cellulose
Procedure: (§1) FIG. 5B is reticulocyte lysate pretreated to remove endogeous 2-5A-dependent RNase and is incubated in the absence of added mRNA (.box-solid.), in the presence of human 2-5A-dependent RNase mRNA without inhibitor (.circle-solid., .box-solid.) or in the presence of both 2-5A-dependent RNase mRNA and cycloheximide (50 μg per ml (.circle-solid.). See Example. Subsequently, the recombinant 2-5A-dependent RNase (or controls) is adsorbed to 2-5A-cellulose and ribonuclease assays are performed after extensive washing of the matrix to reduce general nuclease activity. Radiolabeled substrate RNA was either poly(U) (.smallcircle., .circle-solid., .box-solid.) or poly(C) (.box-solid.).
(§2) Briefly, lysates are adsorbed to about 30 μM of 2-5A-cellulose on ice for about two hours. […] The matrix is then incubated with poly(U)-[^32 P]Cp or poly(C)-[^32 P]Cp (both at about 16 μM in nucleotide equivalents) at about 30° C. and the levels of acid-precipitable radioactive RNA are determined by filtration on glass-fiber filters.

poly(U) = test: Ribonuclease assay with 2-5A-cellulose; format: biochemical; details: enzyme from reticulocyte lysate bound to 2-5A-cellulose, 30° C.
Procedure: as §1, §2

## pppA(3'p5'A)2
[1]
  concentration at which no activation of 2-5A-dependent RNase was seen: > 1 µM

## p3 A2'pA
[1]; listed as pppA2'p5'A
  activation of 2-5A-dependent RNase (in words): failed to activate

B1: recombinant human 2-5A-dependent RNase: full-length human 2-5A-dependent RNase (SEQ ID NO: 2, clone ZC5) produced in vitro (protein)
chain: MESRDHNNPQEGPTSSSGRRAAVEDNHLLIKAVQNEDVDLVQQLLEGGANVNFQEEEGGWTPLHNAVQMSREDIVELLLRHGADPVLRKKNGATLFILAAIAGSVKLLKLFLSKGADVNECDFYGFTAFMEAAVYGKVKALKFLYKRGANVNLRRKTKEDQERLRKGGATALMDAAEKGHVEVLKILLDEMGADVNACDNMGRNALIHALLSSDDSDVEAITHLLLDHGADVNVRGERGKTPLILAVEKKHLGLVQRLLEQEHIEINDTDSDGKTALLLAVELKLKKIAELLCKRGASTDCGDLVMTARRNYDHSLVKVLLSHGAKEDFHPPAEDWKPQSSHWGAALKDLHRIYRPMIGKLKFFIDEKYKIADTSEGGIYLGFYEKQEVAVKTFCEGSPRAQREVSCLQSSRENSHLVTFYGSESHRGHLFVCVTLCEQTLEACLDVHRGEDVENEEDEFARNVLSSIFKAVQELHLSCGYTHQDLQPQNILIDSKKAAHLADFDKSIKWAGDPQEVKRDLEDLGRLVLYVVKKGSISFEDLKAQSNEEVVQLSPDEETKDLIHRLFHPGEHVRDCLSDLLGHPFFWTWESRYRTLRNVGNESDIKTRKSESEILRLLQPGPSEHSKSFDKWTTKINECVMKKMNKFYEKRGNFYQNTVGDLLKFIRNLGEHIDEEKHKKMKLKIGDPSLYFQKTFPDLVIYVYTKLQNTEYRKHFPQTHSPNKPQCDGAGGASGLASPGC
poly(C)
  poly(C) degraded: 20%
poly(U)
  half-life of poly(U) degradation: about 10 minutes

Reference: patent publication US5877019A, “Animal 2-5A-dependent RNases and encoding sequences therefor” (Cleveland Clinic Foundation, priority 1996, dated 1999)
